Measured values: PubChem BioAssay AID686978 (National Center for Advancing Translational Sciences (NCATS), 2013)
Out of some 420,000 compounds screened, about 64,000 (15%) were called active. The inconclusive results got no clear call from the source; some entries with a clear call stand among them for comparison. Calls come from the whole dose curve; as a rule, active = well fitted inhibition curve with a large enough effect; inconclusive = small, poorly fitted or top-dose-only effect; inactive = flat fitted curve, though single readings scatter. No potency is given beside an inconclusive call; the fits are too rough.

experiment: qHTS for Inhibitors of human tyrosyl-DNA phosphodiesterase 1 (TDP1): qHTS in cells in absence of CPT; settings: DT40 Tdp1-/- hTDP1 cells, no CPT, ATP luminescence, 48 h; series mostly up to 46.2 µM; note: nearly all actives have a fitted effect of over 55% in size
Method in brief: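 Stably hTDP1-transfected Tdp1-null chicken DT40 cells were treated with library compounds minus camptothecin and grown for at least 48 hr at 37 °C, after which cellular ATP was quantified by luminescence.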
Potency is the fitted concentration of half-maximal effect; tags give direction and shape of the fitted curve.

SMILES	Potency
CCCn1c2ccccc2c2cnn(CC(=O)NCCc3ccccc3)c(=O)c21	inconclusive [inhibitor, single point]
CC1=C(C(=O)N2CCOCC2)C(c2cc(C)ccc2C)NC(=S)N1 (centres undefined)	inactive
CC(C)(C)OC(=O)CC[C@@H](C(=O)NCCCCCCCCCCC(=O)N1CCN(C(=O)OC(C)(C)C)CC1)n1cc(CCCCCNC(=O)OC(C)(C)C)nn1	active: 4.11 µM
COC(=O)c1ccc(Cn2c(=O)cc(C(F)(F)F)c3c(C)nn(C)c32)cc1	active: 14.6 µM
C=CCOn1c(=O)c(-c2ccc(OC)c(OC)c2)[n+]([O-])c2ccccc21	inconclusive [inhibitor, single point]
COc1ccc(S(=O)(=O)Nc2cccc3c2O[C@H](CN(C)Cc2ccc(-c4ccccc4)cc2)[C@@H](C)CN([C@H](C)CO)C3=O)cc1	inconclusive [inhibitor, single point]
O=C(Nc1ccc(C2CC2(Cl)Cl)cc1)c1ccccc1Br (centres undefined)	active: 13 µM
O=C(NCCCN1CCCC1=O)c1ccc(Cl)c(S(=O)(=O)N2CCCCC2)c1	inactive
O=C(COc1ccccc1)Nc1nonc1NC(=O)COc1ccccc1	inactive
O=C(Nc1nccs1)c1ccc(S(=O)(=O)N2CCCCC2)cc1	inactive
CN(C(=O)c1ccccc1C(=O)OCC(=O)Nc1ccc(OC(F)F)cc1)c1ccccc1	inconclusive [inhibitor, single point]
O=S1(=O)N[C@@H](Cc2ccccc2)COc2cccc(N3CCC[C@H]3CO)c21	inconclusive [inhibitor, single point]
O=C(N=Nc1c(O)n(Cc2ccccc2)c2ccccc12)c1ccncc1	inconclusive [inhibitor, single point]
Cc1cc(OCC(=O)NNC(=S)NC(=O)c2cccs2)ccc1Cl	inconclusive [inhibitor, single point]
Cc1ccc(S(=O)(=O)NCc2ccc3c(c2)cc(C)n3C)cc1	inconclusive [inhibitor, partial curve]
CCCc1n(CC(O)COCc2ccccc2)c2ccccc2[n+]1C (centres undefined)	active: 23.1 µM
CCCCCc1nc2c(=O)n(C)c3ccccc3c2o1	inconclusive [inhibitor, partial curve, poor fit]
CCN(c1ccc(OC)cc1)S(=O)(=O)c1ccc2[nH]c(=O)ccc2c1	inconclusive [inhibitor, single point]
CSc1ccc(CN2CCC(N3CCC(C(=O)NC4CC4)CC3)CC2)cc1	active: 8.2 µM
Cc1ccccc1Cn1c(=O)n(CCc2ccccc2)c(=O)c2ccccc21	inconclusive [inhibitor, single point]
C=CCn1c(SCC(=O)Nc2cccnc2Cl)nnc1-c1ccc(Cl)cc1	inconclusive [inhibitor, single point]
C[C@H]1CN(S(=O)C(C)(C)C)[C@H](CCO)/C1=C\c1ccccc1 (some centres undefined)	inactive
COC(=O)c1ccccc1NC(=O)CCS(=O)(=O)c1ccc(Br)cc1	inconclusive [inhibitor, partial curve]
O=C1c2ccccc2S(=O)(=O)c2cc(N3CCC4(CC3)OCCO4)ccc21	inconclusive [inhibitor, single point]
Cc1cc(N2CCCCC2)nc2ccc(NC(=O)/C=C/c3ccccc3Cl)cc12	active: 10.3 µM

SMILES	Potency
CN(C)c1nc(-c2ccccc2)c2cnn(Cc3ccccc3)c2n1	inactive
COc1cc(OC)cc(N(C(=O)c2ccco2)C(C(=O)NC2CCCC2)c2ccc(N(C)C)cc2)c1 (centres undefined)	inconclusive [inhibitor, single point]
COc1ccccc1-c1nnc(NC(=O)c2ccc(S(=O)(=O)N(C)CC3CCCO3)cc2)o1 (centres undefined)	inconclusive [inhibitor, single point]
Cc1c(N=C2N=C(NC(=O)c3ccc(F)cc3)c3ccccc32)c(=O)n(-c2ccccc2)n1C	active: 23.1 µM
CCCN(CCC)Cc1cc(=O)oc2ccc3ccccc3c12	inconclusive [inhibitor, single point]
O=C(NC1CCSc2ccccc21)c1cc([N+](=O)[O-])ccc1N1CCOCC1 (centres undefined)	inconclusive [inhibitor, single point]
O=C(Nc1ccc2oc(-c3ccc4ccccc4c3)nc2c1)c1ccccc1F	inconclusive [inhibitor, full curve, poor fit]
Cc1ccccc1N1CCN(C2CCCN(C(=O)CCN3CCCCC3=O)C2)CC1 (centres undefined)	inactive
COc1ccccc1NC(=O)C(Cc1ccccc1)NS(=O)(=O)c1ccc2c(c1)c(=O)n(C)c(=O)n2C (centres undefined)	inconclusive [inhibitor, single point]
COc1ccc(OC)c(NC(=O)Nc2nnc([C@H]3C[C@H](O)[C@@H](CO)O3)s2)c1	inactive
COc1ccc(C2CC(c3cccs3)n3nc(N)nc3N2)cc1 (centres undefined)	inconclusive [inhibitor, single point]
CC(=O)c1cc(CN2CCN(Cc3ccc(C)cc3)C(CCO)C2)cs1 (centres undefined)	inconclusive [inhibitor, partial curve]
COc1cc(CNCc2ccc(OC)c(OC)c2OC)cc(OC)c1	active: 20.6 µM
CNC(=O)c1ccsc1NC(=O)C1CCN(S(=O)(=O)c2ccc(Cl)s2)CC1	inconclusive [inhibitor, partial curve, poor fit]
CCOc1ncccc1C(=O)N1CCN(Cc2ccc3c(c2)OCO3)CC1	inactive
Cc1ccc(OCCn2c(=S)[nH]c3ccccc32)c(C(C)C)c1	inconclusive [inhibitor, single point]
O=C1/C(=C/c2ccccc2)SC(=S)N1C1CCS(=O)(=O)C1 (centres undefined)	inconclusive [inhibitor, partial curve, poor fit]
O=S(=O)(c1ccccc1)c1nc(Cc2ccccc2)oc1N1CCOCC1	inactive
CC(=O)C[C@@H](O)CC(=O)[C@H]1OC(=O)[C@H](C)CCCCc2ccccc21	inactive
C=CC[n+]1cccc2cc(Br)ccc21	inactive
O=C(CN1C(=O)C2CCCCC2C1=O)Nc1cccc([N+](=O)[O-])c1 (centres undefined)	inconclusive [inhibitor, single point]
O=C(NCc1ccc(F)cc1)c1c(O)nc2ccccn2c1=O	active: 20.6 µM
CNC(=O)CC(=O)Nc1ccccc1C(=O)O	inactive
O=C(CSc1nnc(-c2ccc(F)cc2)o1)Nc1ccc(S(=O)(=O)N2CCCCCC2)cc1	inconclusive [inhibitor, partial curve]
COc1ccc(Oc2ncc3nc(-c4cc(F)cc(F)c4)c(=O)n(C[C@H]4CCCO4)c3n2)cc1	inactive

SMILES	Potency
CCCCOc1cccc(NC(=O)CSc2nnc(C)s2)c1	inactive
Cc1ccc(-c2ccc(CCC(=O)O)o2)cc1	inactive
COCCn1c(=O)c(-c2cc(F)cc(F)c2)nc2cnc(OC)nc21	inactive
CCOc1ccc(NC(=O)c2c(N)n(C)c(=O)[nH]c2=O)cc1	inactive
CC(C)CN(C(=O)CCC(=O)OCC(=O)N(C)c1ccccc1)c1c(N)n(CC(C)C)c(=O)[nH]c1=O	inactive
COc1ccc(NC(=O)COc2ccc(S(=O)(=O)NC3CCCCC3)cc2)cc1OC	active: 20.6 µM
Cc1ccc(S(=O)(=O)N2CCOCC2)cc1NC(=O)COC(=O)CCn1c(C)csc1=O	inactive
S=C(c1ccc(N2CCCC2)cc1)N1CCCCC1	active: 18.4 µM
CCOc1ccc(NC(=S)NCc2cccnc2)cc1	inactive
COc1ccc(C(=O)N/N=C/c2ccc3cccc(OCc4ccccc4)c3n2)cc1	active: 8.2 µM
Cc1cc(N/N=C/c2ccco2)c2ccccc2n1	inconclusive [inhibitor, single point]
COc1cc(OC)cc(C(=O)NCCC(c2ccccc2)c2ccccc2)c1	inconclusive [inhibitor, single point]
Cc1ccc(C(=O)N2CCCCCC2)cc1Br	inconclusive [inhibitor, partial curve, poor fit]
CS(=O)(=O)N(CC(=O)N1CCC(C(N)=O)CC1)c1ccc(Oc2ccccc2)cc1	inconclusive [inhibitor, partial curve]
Cc1cccc(C)c1NC(=O)c1sc(N)nc1-c1ccccc1	inactive
CCOC(=O)CN1C(=O)/C(=C/c2c(F)cccc2Cl)Oc2ccccc21	inconclusive [inhibitor, single point]
COc1ccc(CCNC(=O)c2ccc(S(=O)(=O)N(C)c3ccccc3)cc2)cc1OC	active: 23.1 µM
CC(C)(C)n1nnnc1C(c1ccccc1OC(F)(F)F)N1CCN(C/C=C/c2ccccc2)CC1 (centres undefined)	active: 14.6 µM
Cc1cc(/C=C2\SC(=S)NC2=O)c(C)[nH]1	inactive
COc1ccc(OC)c(NC(=O)CSc2nc3ccccc3nc2N2CCCCC2)c1	inconclusive [inhibitor, single point]
Cn1c(=O)c2c(SCc3ccccn3)nc(C3CC3)nc2n(C)c1=O	inconclusive [inhibitor, single point]
COc1ccc(Br)cc1C1Sc2ccccc2NC2=C1C(=O)c1ccccc12 (centres undefined)	active: 13 µM
CCC(=O)NC(=S)Nc1ccccc1C(=O)OC	inactive
CC1(C)Cc2c(C#N)c(SCc3nc4ccccc4[nH]3)nc(N3CCOCC3)c2CO1	inconclusive [inhibitor, partial curve]
